Out of some 150,000 compounds screened, about 540 (0.36%) showed an effect of 50% or more. This is one part of the list.

This assay concerns Plasmodium falciparum. The experiment in a line: Primary screen in NF54 nanoGlo assay, in single point, at 2uM, 72h; a lower Z score goes with more inhibition. The settings on record: timepoint 72 hour. Format: functional, Erythrocyte.
Broadly, the % Inhibition is the drop in the measured response relative to a control, in per cent. For the molecule `Cc1nn(-c2ccccc2)c2nc(C(=O)N3[C@H](C)CCC[C@@H]3C)ccc12`, the “% Inhibition” value is reported as 19% and the Z score is -2.38.

For the molecule `Cc1ccccc1-c1cc2n(n1)CCC(=O)N2CC(=O)NCc1ccccc1F`, the “% Inhibition” value is listed as -14% and the Z score was found to be 1.38.

`CCc1ccc(C(NC(=O)N2CCC(C(C)O)C2)C(C)(C)C)o1` (stereo not given): the “% Inhibition” value is given as -17% and the Z score is listed as 2.35.

Consider `CNC(=O)N[C@H]1CCCN(Cc2c(C)nsc2C)C1`, for which the “% Inhibition” value stood at 1% and the Z score is -0.15.

In the case of `Cc1cc(Cl)c2ncc(C#N)c(NCC3(S(C)(=O)=O)CC3)c2c1`, the “% Inhibition” value is given as -6% and the Z score stood at 0.52.

Consider `Fc1ccc([C@@H]2CCCN2CCN2CCCOCC2)cc1F`, for which the “% Inhibition” value is given as 0% and the Z score is 0.02.

Turning to `O=C1NCCCC[C@@H]1N1CCC(C(F)(F)F)CC1`, the “% Inhibition” value is reported as -6% and the Z score is given as 0.8.

Consider `CCOC(=O)C1CCC(CN(Cc2c(Cl)cccc2Cl)S(=O)(=O)c2ccc(OC)cc2)CC1` (stereo not given), for which the “% Inhibition” value is on record as 10% and the Z score was -1.17.

For the molecule `CC(C)Cc1nnc(C[C@H]2CCN(S(=O)(=O)C(C)C)C2)o1`, the “% Inhibition” value is -12% and the Z score is listed as 1.74.

Regarding `CCc1cccc(NC(=O)Cn2nc(N3CCCC3)c3ccccc3c2=O)c1`, the “% Inhibition” value is recorded as -5% and the Z score worked out at 0.59.

In the case of `c1ccn2c(CCNC3CCCCCCC3)nnc2c1`, the “% Inhibition” value came out at 1% and the Z score is -0.09.

As for `CCc1cc(N2CCN(c3nc4c(s3)c(C)nn4C)CC2)ncn1`, the “% Inhibition” value is -12% and the Z score is 1.84.

In the case of `CCCN(Cc1ccc(C)cc1)C(=O)CN(c1ccnn1C(C)C)S(=O)(=O)c1ccccc1`, the “% Inhibition” value is on record as 24% and the Z score is reported as -2.59.

Take `C#Cc1cccc(NC(=O)NC[C@H]2CC(C(N)=O)=NO2)c1`: the “% Inhibition” value is on record as -4% and the Z score turned out to be 0.49.

With `C=CCNCC#CCOc1c(C)cccc1C`, the “% Inhibition” value is listed as 4% and the Z score is given as -0.69.

Take `Cc1nc2ccc(NC(=O)Cc3noc4ccccc34)cc2s1`: the “% Inhibition” value is -11% and the Z score was determined as 2.06.

For `O=C1NCCCc2[nH]c(C3CCCCC3)nc21`, the “% Inhibition” value was determined as 2% and the Z score is -0.24.

For `CC(C)c1nc(CNC(=O)c2ncoc2C2CC2)cs1`, the “% Inhibition” value is -4% and the Z score stood at 0.5.

As for `O=C([C@H]1CCCN(S(=O)(=O)Cc2ccc(Cl)cc2)C1)N1CCc2ccccc21`, the “% Inhibition” value is -6% and the Z score was determined as 0.81.

For `CNc1snc(C)c1C(=O)N1CCOC2CCCCC21` (stereo not given), the “% Inhibition” value was -4% and the Z score is reported as 0.54.

Consider `O=C(Nc1ccc2[nH]c(=O)[nH]c2c1)c1cccc(S(=O)(=O)NCc2cccs2)c1`, for which the “% Inhibition” value came out at 0% and the Z score is 0.01.

`COc1ccccc1N1CCN(C(=O)[C@H](CC(C)C)NC(=O)C2CCC(C)CC2)CC1` (stereo not given in full): the “% Inhibition” value is -5% and the Z score was determined as 0.52.

On to `CC(=O)Nc1nc(C(=O)NC[C@H](C)N2CCCC2)cs1`, for which the “% Inhibition” value was determined as 8% and the Z score is on record as -1.39.

With `Cc1nc(NC(=O)N2CCN(C(C)C)CC2)nn1C`, the “% Inhibition” value was found to be 4% and the Z score is -0.51.

On to `CC(C)[C@@H]1C[C@@H](CNS(=O)(=O)c2ccnn2C)c2ccccc21`, for which the “% Inhibition” value amounted to 10% and the Z score is recorded as -1.25.

For `Cc1nc(C2(C)CCN(S(=O)(=O)c3cccc4nsnc34)CC2)no1`, the “% Inhibition” value is -9% and the Z score was 1.17.

On to `C#CCN(C)Cc1nc(C2(O)CCN(C3COC3)CC2)cs1`, for which the “% Inhibition” value was -3% and the Z score was found to be 0.47.

As to `CC(C)(C)OC(=O)[C@@H](NC(=O)C1CCCO1)c1ccccc1` (stereo not given in full), the “% Inhibition” value is given as -4% and the Z score was 0.82.

Consider `O=C(NCc1ccc(Cl)cc1Cl)C1CCN(S(=O)(=O)c2ccc3c(c2)CCC3)CC1`, for which the “% Inhibition” value turned out to be 12% and the Z score was -1.4.

Turning to `CC1CN(C(C(=O)N2CCCC(n3cccn3)C2)C(C)C)CC(C)O1` (stereo not given), the “% Inhibition” value is -9% and the Z score was determined as 1.18.

Consider `Cc1ccc2c(c1)CN(CCC(=O)NC(C)c1ccc(F)cc1)CC(C)O2` (stereo not given), for which the “% Inhibition” value is reported as -4% and the Z score stood at 0.51.

Consider `O=C(NCCOCc1ccc(Cl)cc1)[C@@H]1NCCc2[nH]cnc21`, for which the “% Inhibition” value was 4% and the Z score is on record as -0.83.

Regarding `Cn1cc(N2C[C@@H](C(=O)NCC=Cc3cccnc3)CCC2=O)cn1`, the “% Inhibition” value was -4% and the Z score worked out at 0.63.

In the case of `CCC(C)C(OC)C(=O)Nc1cn(C)c(=O)n(C)c1=O` (stereo not given), the “% Inhibition” value is on record as -1% and the Z score turned out to be 0.14.

`COCC(C)NC(=O)C(C#N)C(=O)c1ccc(C)c(F)c1` (stereo not given): the “% Inhibition” value was -9% and the Z score amounted to 1.37.

Turning to `Cc1cc(C(=O)NCCCn2ccnc2)no1`, the “% Inhibition” value is -7% and the Z score came out at 0.85.

With `CC(C)(C)[C@H](NCCC(=O)Nc1sccc1C#N)c1cccs1`, the “% Inhibition” value is recorded as -3% and the Z score is 0.29.

For `CCCN(C)c1nccn2c(=O)n(CC(=O)Nc3ccc(C)c(Cl)c3)nc12`, the “% Inhibition” value is recorded as -11% and the Z score worked out at 1.07.

Turning to `O=S(=O)(c1ccccc1)c1nc(NCc2ccccc2)sc1Cl`, the “% Inhibition” value is on record as -6% and the Z score was determined as 0.56.

On to `CCc1ccc(N2C(=O)CC[C@@]2(C)C(=O)NCc2ccccc2)cc1`, for which the “% Inhibition” value is reported as -1% and the Z score was 0.16.

For the molecule `CC(C)c1nc(Cc2ccc(F)cc2Cl)n(C)n1`, the “% Inhibition” value was -7% and the Z score is listed as 0.91.

As to `O=C(c1c(F)cccc1F)N1C2CCC1CC(n1cncn1)C2` (stereo not given), the “% Inhibition” value is given as -2% and the Z score turned out to be 0.2.

Take `COc1ccc(-c2ccc(=O)n(CN3CCn4c(nnc4C(F)(F)F)C3)n2)cc1OC`: the “% Inhibition” value is on record as -2% and the Z score is 0.25.

For `O=C1C[C@H](c2ccccc2F)c2cnn(Cc3ccco3)c2N1`, the “% Inhibition” value worked out at 3% and the Z score is -0.33.

Take `Cc1cc(C)c(C(=O)N2CCN(c3ncc(F)cn3)C(=O)C2)c(C)c1`: the “% Inhibition” value was 17% and the Z score is -2.18.

As for `CC(C)c1ncc(CN2CCOc3cc(F)ccc32)s1`, the “% Inhibition” value is listed as -11% and the Z score is on record as 1.43.

Regarding `Cc1ccc(NC2=NC(N)=NC(C)(C)N2)cc1`, the “% Inhibition” value amounted to 0% and the Z score was determined as 0.07.

For `CCCCN(C)C(=O)[C@@H]1Cc2[nH]cnc2C2(CCCCC2)N1`, the “% Inhibition” value was -11% and the Z score was 1.55.

`CCCc1cc(NCCn2cnc(C)c2C)nc(C)n1`: the “% Inhibition” value is recorded as -6% and the Z score was 0.75.

Take `O=C(Nc1ccc(N2CCOCC2)nc1)C1CC2CCC1C2` (stereo not given): the “% Inhibition” value is listed as -10% and the Z score turned out to be 1.95.

On to `Nc1nnc(CCc2ccccc2N)[nH]1`, for which the “% Inhibition” value is recorded as 34% and the Z score was -3.82.

With `CCc1ccccc1NC(=O)N1C[C@@H]2CCCN2c2ccccc21`, the “% Inhibition” value is -10% and the Z score is 1.37.

As to `CCc1nc(-c2ccc(C(=O)Nc3ccc(F)cc3Cl)cc2)no1`, the “% Inhibition” value was found to be 8% and the Z score is recorded as -0.82.

Take `O=C(Cc1cccs1)Nc1nc(-c2ccccc2)cs1`: the “% Inhibition” value is recorded as -12% and the Z score was 2.51.

On to `NC(=O)[C@@H]1Cc2ccccc2N1S(=O)(=O)c1ccc2c(c1)CCO2`, for which the “% Inhibition” value is -6% and the Z score amounted to 0.72.

(Values after ChEMBL document CHEMBL4888484, “Replenishing the malaria drug discovery pipeline: Screening and hit evaluation of the MMV Hit Generation Library 1 (HGL1) against asexual blood stage Plasmodium falciparum ,using a nano luciferase reporter read-out” (2022).)
